# Assay results published in US20220025032A1 (Novartis, published 2022).
# Numbering of substitutions follows the chain as printed. Several values for one entry are separate records, joined by “and”; a condition that tells them apart may be missing. Identical values can stand only once.
# B1: NVS11 (bispecific antibody)
# heavy: QVQLVQSGAEVKKPGSSVKVSCKASGGTFSSYAISWVRQAPGQGLEWMGGIVPWMGEAVYAQKFQGRVTITADESTSTAYMELSSLRSEDTAVYYCARSSSTYGIHAFDYWGQGTLVTVSSASTKGPSVFPLAPSSKSTSGGTAALGCLVKDYFPEPVTVSWNSGALTSGVHTFPAVLQSSGLYSLSSVVTVPSSSLGTQTYICNVNHKPSNTKVDKRVEPKSCGSGGGGSGGGGSGGGEVQLVESGGGLVQPGGSLRLSCTASGFSLTDYYYMTWVRQAPGKGLEWVGFIDPDDDPYYATWAKGRFTISRDNSKNTLYLQMNSLRAEDTAVYYCAGGDHNSGWGLDIWGQGTLVTVSSASTKGPSVFPLAPSSKSTSGGTAALGCLVKDYFPEPVTVSWNSGALTSGVHTFPAVLQSSGLYSLSSVVTVPSSSLGTQTYICNVNHKPSNTKVDKRVEPKSC
# light: DIQMTQSPSSLSASVGDRVTITCRASQSISNFLNWYQQKPGKAPKLLIYAASNLQSGVPSRFSGSGSGTDFTLTISSLQPEDFATYYCQQYDDFPMTFGQGTKVEIKRTVAAPSVFIFPPSDEQLKSGTASVVCLLNNFYPREAKVQWKVDNALQSGNSQESVTEQDSKDSTYSLSSTLTLSKADYEKHKVYACEVTHQGLSSPVTKSFNRGECGSGGGGSGGGGSGGGEIVMTQSPSTLSASVGDRVIITCQASEIIHSWLAWYQQKPGKAPKLLIYLASTLASGVPSRFSGSGSGAEFTLTISSLQPDDFATYYCQNVYLASTNGANFGQGTKLTVLKRTVAAPSVFIFPPSDEQLKSGTASVVCLLNNFYPREAKVQWKVDNALQSGNSQESVTEQDSKDSTYSLSSTLTLSKADYEKHKVYACEVTHQGLSSPVTKSFNRGEC
# notes: Fab-Fab: NVS1 Fab at the N-terminus, (GSGGG)3 linker, NVS8 Fab at the C-terminus; also called anti-BTC/anti-VEGF bispecific Fab; bispecific Fab-Fab
# How the values were obtained:
# [1] = biological target: T1, membrane-bound human BTC on 293F-hBTC cells (human, UniProt P35070 32-111); assay: flow cytometry on 293F cells over-expressing membrane-bound BTC
# T1 construct: the transfected construct is not described; also called membrane-anchored BTC
# T1 sequence: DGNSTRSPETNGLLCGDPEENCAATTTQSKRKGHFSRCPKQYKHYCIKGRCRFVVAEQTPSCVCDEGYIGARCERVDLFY
# Method: (§1) After washing the cells, the cells were dissociated using Versene at 37° C. The cells were washed with FACS buffer and plated at 100 μl in a 96 well plate using cells at 1×10⁶ cells/ml. Then 100 μl of a serial dilution of antibodies starting at 50 nM was used. The cells were incubated, washed and then treated with the secondary anti-human Fab-FITC antibody. The antibodies only bound to the cells expressing BTC. After which the cells were washed and analyzed on the Attune Flow Cytometry. All data analysis was carried out using Flow Jo software.
# (§2) In FIG. 6A, Flow cytometry was used to assess the binding of NVS11 to membrane-bound BTC using an anti-human Fab antibody for detection.
# Human BTC [2] = biological target: T2, Human BTC (human, UniProt P35070 32-111); assay: inhibition of BTC binding to ErbB4; y axis MSD units, x axis Antibody concentration (pM); blocked partner ErbB4
# T2 construct: Soluble human BTC of the Biacore, ELISA, MSD and cell assays; also called human betacellulin; soluble human BTC
# T2 sequence: T1 sequence
# [3] = biological target: T1, membrane-bound human BTC on 293F-hBTC …; assay: flow cytometry on 293F cells with membrane-bound human BTC, anti-human Fab detection; y axis Percent Positive Binding, x axis Antibody concentration (nM)
# Method: as §1, §2
# Human VEGF165 [4] = biological target: T3, Human VEGF165 (human, UniProt P15692 27-191); assay: SPR, NVS11 captured on the chip, average of 5 experiments
# T3 construct: mature; biotinylated in the VEGFR2 ELISAs; also called human VEGF-A; VEGF-A
# T3 sequence (looked up): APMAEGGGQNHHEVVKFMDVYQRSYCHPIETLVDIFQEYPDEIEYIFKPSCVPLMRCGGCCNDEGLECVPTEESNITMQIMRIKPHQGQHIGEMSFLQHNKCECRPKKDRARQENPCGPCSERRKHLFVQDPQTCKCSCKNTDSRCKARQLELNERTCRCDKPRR
# Method: (§3) First, surface plasmon resonance used for affinity measurements of BTC or VEGF binding to NVS11 was captured on the chip.
# (§4) The average values for human VEGF are calculated from 5 individual experiments. The average values for human and cyno BTC are calculated from 7 individual experiments.
# Human BTC [5] = biological target: T2, Human BTC; assay: SPR, NVS11 captured on the chip, average of 7 experiments
# Method: as §3, §4
# Cyno BTC = biological target: T4, Cyno BTC (cynomolgus, UniProt A0A2K5X5E5 32-111); assay: as above
# T4 construct: also called cynomolgus BTC
# T4 sequence: T1 sequence with E19D, A56T
# Method: as §3, §4
# Human BTC [6] = biological target: T2, Human BTC; assay: SPR Biacore T200, anti-Fab capture, antigen as analyte
# Human VEGF165 [7] = biological target: T3, Human VEGF165; assay: competition ELISA, biotinylated human VEGF binding to coated VEGFR2-Fc
# Method: (§5) NVS11 neutralization of VEGF was determined by ELISA. Various concentrations of NVS11 was pre-incubated with biotinylated human VEGF and added to VEGFR2-Fc coated plates.
# Human VEGF165 [8] = biological target: T3, Human VEGF165; assay: competition ELISA: antibody pre-incubated with biotinylated human VEGF, added to coated human VEGFR2-Fc, streptavidin-HRP detection; blocked partner VEGFR2-Fc
# Method: as §5
# Human VEGF165 [9] = biological target: T3, Human VEGF165; assay: competition ELISA: antibody pre-incubated with 400 pM VEGF-biotin, added to coated VEGFR2, streptavidin-HRP detection; y axis OD
# Method: The plates were then washed 3 times using 1λTBST. The plates were blocked in 2% BSA diluent (0.1% Tween 20/0.1% TirtonX100) overnight. After blocking, the plates were washed 3 times using TB ST and then the sample mixture was added at 20 μl/well. The sample mixture consisted a final fixed concentration of VEGF-biotin (in-house) at 400 pM and a 15 point 1:2 serial dilution of the antibody starting at 20 nM. The sample mixture was pre-incubated for 1 hour prior to adding to the plate and then incubated for another hour at room temperature on the plate. Afterwards, the plate was washed 3 times using TBST and 20 μl/well of Streptavidin-HRP diluted at 1:5000 was added for an incubation time of 1 hour. The plates were washed 3 times in TBST and then 20 μl/well of TMB substrate was added. TMB is a chromogen that yields a blue color when oxidized. TMB was incubated for 10 minutes until the signal saturated in the no antibody samples, and then 10 μl/well of 2N sulfuric acid was added which then changes the blue color to yellow and this now has a maximum absorbance at 450 nm.
# Human BTC [10] = biological target: T2, Human BTC; assay: inhibition of BTC binding to ErbB1; y axis MSD units, x axis Fab (pM); blocked partner ErbB1
# Human BTC-avitag-biotin [11] = biological target: T5, Human BTC-avitag-biotin (human, UniProt P35070 32-111, biotin on the avitag); assay: flow cytometry, BTC-ErbB4 Cell Binding Inhibition: antibody pre-incubated with 15 nM human BTC-avitag-biotin, HKB11 cells over-expressing human ErbB4; y axis Percent Inhibition
# T5 construct: also called biotin-BTC; soluble human BTC-avitag-biotin
# T5 sequence: T1 sequence
# Method: (§6) HKB11 over-expressing either ErbB1 or ErbB4 cells were plated 1×10⁵ cells/well. Cells were washed once with FACS buffer by spun down at 1200 rpm for 5 minutes and supernatant removed. Next, the Fab sample dilutions and BTC were prepared in FACS buffer. Human BTC-avitag-biotin was diluted to a fixed concentration of 15 nM. The test Fab samples were prepared at a starting concentration of 40 nM and titrated for 9 points at a serial dilution of 1:2. Both biotin-BTC and the test Fab samples are incubated for 30 minutes at room temperature. The pre-incubated samples were then added to the cell plate at 100 μl per well in duplicate and incubated for 1 hour on ice. The plate was then washed once in FACS buffer and spun down at 1200 rpm for 5 minutes and supernatant removed. […]
# (§7) Measurements were performed on Attune Flow Cytometry machine. Data were analysed using the Flow Jo software. The live cell populations analysed were gated in forward and side scattering (FSC-A/SSC-A dot plot). The interval gate was established on the control histogram, which was obtained with sample incubated in streptavidin-Alexa Fluor488 only, and subsequently, determined percent of positive binding events of cells carrying membrane-bound receptor ErbB1 or ErbB4 and biotin-BTC. The median of fluorescence intensity (MFI) value was also derived for the live cell population. […]
# Human BTC-avitag-biotin [12] = biological target: T5, Human BTC-avitag-biotin; assay: flow cytometry, BTC-ErbB1 Cell Binding Inhibition: antibody pre-incubated with 15 nM human BTC-avitag-biotin, HKB11 cells over-expressing human ErbB1; y axis Percent Inhibition
# Method: as §6, §7
binder,measurement,setting,value
B1,EC50,[1],0.093 nM and 0.009 µg/mL
same,IC50,Human BTC [2],0.556 nM
same,EC50,[3],0.08 nM
same,Kd,Human VEGF165 [4],0.0186 nM
same,koff,Human VEGF165 [4],2.4e-05 s⁻¹
same,kon,Human VEGF165 [4],1.3e+06 M⁻¹ s⁻¹
same,Kd,Human BTC [5],0.0058 nM
same,koff,Human BTC [5],3e-05 s⁻¹
same,kon,Human BTC [5],5.1e+06 M⁻¹ s⁻¹
same,Kd,Cyno BTC,0.0072 nM
same,koff,Cyno BTC,3e-05 s⁻¹
same,kon,Cyno BTC,4.2e+06 M⁻¹ s⁻¹
same,Kd,Human BTC [6],0.0018 nM
same,IC50,Human VEGF165 [7],1.3 nM and 0.127 µg/mL
same,IC50,Human VEGF165 [8],1.09 nM
same,IC50,Human VEGF165 [9],1.09 nM
same,IC50,Human BTC [10],0.258 nM
same,IC50,Human BTC-avitag-biotin [11],7.6 nM
same,IC50,Human BTC-avitag-biotin [12],2.6 nM
